In US20060009506A1, “Drugs for the treatment of neoplastic disorders” (Odyssey Thera, Inc., priority 2004, published 2006):

How the values were obtained:
MIA PaCa-2 cells = assay: MTT proliferation assay, pancreatic carcinoma MIA PaCa-2; type: cell-based; details: Homo sapiens, MIA PaCa-2, 120 h, Tumor Cell: Pancreatic (MIA PaCa-2), concentrations tested in microM
From the text: (§1) We first screened compounds derived from the known pharmacopeia and from a selected natural product collection using two types of assays: (a) measurements of post-translational modifications of proteins; (b) measurements of protein-protein interactions. For the purpose of measuring post-translational modifications of proteins, we used immunofluorescence methods combined with phospho-specific antibodies. For the purpose of quantifying and localizing protein complexes we used fluorescence methods based on protein-fragment complementation assays (PCA). ‘Hits’ from the initial screens were then tested for antiproliferative activity in up to 5 different human tumor cell lines. […] For drugs with antiproliferative activity in PC-3 cells, dose-response curves were generated to determine the EC50 for antiproliferative activity and additional tumor cell lines were tested to determine the breadth of activity. Methods for assay development, validation, screening, and testing of antiproliferative activity are described below.
(§2) Cells were maintained in various media as follows: A549, LoVo and PC-3 (Ham's F12K medium with 2 mM L-glutamine and 1.5 g/L sodium bicarbonate), MIA PaCa-2 (Dulbecco's modified Eagle's medium with 4 mM L-glutamine and 4.5 g/L glucose), U87-MG (MEM+Earle's BSS). […] Background absorbance was established by wells containing medium but no cells. […]

A549 cells = assay: MTT proliferation assay, non-small cell lung carcinoma A549; type: cell-based; details: Homo sapiens, A549, 120 h, Tumor Cell: NSCLC (A549), concentrations tested in microM
From the text: as §1
Cells were maintained in various media as follows: A549, LoVo and PC-3 (Ham's F12K medium with 2 mM L-glutamine and 1.5 g/L sodium bicarbonate), MIA PaCa-2 (Dulbecco's modified Eagle's medium with 4 mM L-glutamine and 4.5 g/L glucose), U87-MG (MEM+Earle's BSS). Medium for each cell line was supplemented with 10% FBS and […] Penecillin/Streptomycin. All cells were grown in incubators set at 37° C., 5% CO2. Thiazolyl Blue Tetrazolium Bromide (MTT) based proliferation assays were performed to assess the anti-proliferative activities of the compounds on these cells. Cells were seeded in 96 well plates at a density of 750 cells/well 24 hours prior to compound treatment. The cells were incubated with varying concentrations of compounds for 120 hours. […] Drug treatment was performed in 5 replicate wells. Background absorbance was established by wells containing medium but no cells. Vehicle (DMSO) only was used as control. MTT (Sigma-Aldrich, St. Louis, Mo.) was added to each well at a final concentration of 0.5 mg/ml. […]

U-87 MG cells = assay: MTT proliferation assay, glioblastoma U-87 MG; type: cell-based; details: Homo sapiens, Tumor Cell: Glioblastoma (U-87 MG), 120 hours, concentrations tested in microM
From the text: as §1, §2

PC-3 cells = assay: MTT proliferation assay, prostate adenocarcinoma PC-3; type: cell-based; details: Homo sapiens, Tumor Cell: Prostate (PC-3), 120 hours, concentrations tested in microM
From the text: as §1, §2

LoVo cells = assay: MTT proliferation assay, colon adenocarcinoma LoVo; type: cell-based; details: Homo sapiens, Tumor Cell: Colon (LoVo), 120 hours, concentrations tested in microM
From the text: as §1, §2

cancer cells = assay: Antiproliferative activity against cancer cells (cell line not stated); type: cell-based, human; details: general statement
From the text: We first screened compounds derived from the known pharmacopeia and from a selected natural product collection using two types of assays: (a) measurements of post-translational modifications of proteins; (b) measurements of protein-protein interactions. For the purpose of measuring post-translational modifications of proteins, we used immunofluorescence methods combined with phospho-specific antibodies. For the purpose of quantifying and localizing protein complexes we used fluorescence methods based on protein-fragment complementation assays (PCA). ‘Hits’ from the initial screens were then tested for antiproliferative activity in up to 5 different human tumor cell lines. […]
Cells were maintained in various media as follows: A549, LoVo and PC-3 (Ham's F12K medium with 2 mM L-glutamine and 1.5 g/L sodium bicarbonate), MIA PaCa-2 (Dulbecco's modified Eagle's medium with 4 mM L-glutamine and 4.5 g/L glucose), U87-MG (MEM+Earle's BSS). […] Background absorbance was established by wells containing medium but no cells. […] Mean absorbance values were calculated from 5 replicate wells of each drug treatment following subtraction of background absorbance from blank samples and plotted as a percentage of control.

cancer pathways = assay: Screening of cancer pathways in human cells (PCA and phospho-immunofluorescence); type: cell-based; details: cancer pathway in which the drug was active; screened at 10 micromolar, HEK293 cells
From the text: as §1, with “Methods for assay development, validation, screening, and testing of antiproliferative activity are described below.” left out
Immunofluorescence was performed on drug-treated cells using antibodies that specifically recognize phosphorylated forms of key signaling proteins. […] Background fluorescence due to nonspecific binding by the secondary antibody was established with the use of cells that were incubated with BSA/PBS and without primary antibodies. Fluorescence intensities were quantitated using Image J-based image analysis algorithm as described below. […]

Structure (SMILES)	IC50 (MIA PaCa-2 cells) [µM]	IC50 (A549 cells) [µM]	IC50 (U-87 MG cells) [µM]	IC50 (PC-3 cells) [µM]	IC50 (LoVo cells) [µM]	Antiproliferative activity against cancer cells (cancer cells)	Pathway Activity (cancer pathways)
C(=C\c1ccccc1)/CN1CCN(C(c2ccccc2)c2ccccc2)CC1 [Cinnarizine]	> 40	5.71	> 40	10.5	7.14	substantial antiproliferative activity	apoptosis
CCN(CC)CCOc1ccc(C(=C(Cl)c2ccccc2)c2ccccc2)cc1 [Clomiphene]		8.35					
Fc1ccc(C(c2ccc(F)cc2)N2CCN(C/C=C/c3ccccc3)CC2)cc1 [Flunarizine]	22.5	18.2					
